These are yes or no findings as the source states them, for the method shown. In cells and extracts the contact can be indirect. Tags and fused reporters may be left off the sequences shown.
Tests used:
Test in all cases: split reporter; BiFC: N-terminal YN and YC fusions co-expressed in epidermal cells of N. benthamiana leaves, observed 3 days after infiltration by spinning-disk microscopy; CFP-N7 as transformation control
[1] = molecular target: T1, CESA1, N-terminal YN or YC fusion (BiFC) (Arabidopsis thaliana) (UniProt O48946)
T1 sequence: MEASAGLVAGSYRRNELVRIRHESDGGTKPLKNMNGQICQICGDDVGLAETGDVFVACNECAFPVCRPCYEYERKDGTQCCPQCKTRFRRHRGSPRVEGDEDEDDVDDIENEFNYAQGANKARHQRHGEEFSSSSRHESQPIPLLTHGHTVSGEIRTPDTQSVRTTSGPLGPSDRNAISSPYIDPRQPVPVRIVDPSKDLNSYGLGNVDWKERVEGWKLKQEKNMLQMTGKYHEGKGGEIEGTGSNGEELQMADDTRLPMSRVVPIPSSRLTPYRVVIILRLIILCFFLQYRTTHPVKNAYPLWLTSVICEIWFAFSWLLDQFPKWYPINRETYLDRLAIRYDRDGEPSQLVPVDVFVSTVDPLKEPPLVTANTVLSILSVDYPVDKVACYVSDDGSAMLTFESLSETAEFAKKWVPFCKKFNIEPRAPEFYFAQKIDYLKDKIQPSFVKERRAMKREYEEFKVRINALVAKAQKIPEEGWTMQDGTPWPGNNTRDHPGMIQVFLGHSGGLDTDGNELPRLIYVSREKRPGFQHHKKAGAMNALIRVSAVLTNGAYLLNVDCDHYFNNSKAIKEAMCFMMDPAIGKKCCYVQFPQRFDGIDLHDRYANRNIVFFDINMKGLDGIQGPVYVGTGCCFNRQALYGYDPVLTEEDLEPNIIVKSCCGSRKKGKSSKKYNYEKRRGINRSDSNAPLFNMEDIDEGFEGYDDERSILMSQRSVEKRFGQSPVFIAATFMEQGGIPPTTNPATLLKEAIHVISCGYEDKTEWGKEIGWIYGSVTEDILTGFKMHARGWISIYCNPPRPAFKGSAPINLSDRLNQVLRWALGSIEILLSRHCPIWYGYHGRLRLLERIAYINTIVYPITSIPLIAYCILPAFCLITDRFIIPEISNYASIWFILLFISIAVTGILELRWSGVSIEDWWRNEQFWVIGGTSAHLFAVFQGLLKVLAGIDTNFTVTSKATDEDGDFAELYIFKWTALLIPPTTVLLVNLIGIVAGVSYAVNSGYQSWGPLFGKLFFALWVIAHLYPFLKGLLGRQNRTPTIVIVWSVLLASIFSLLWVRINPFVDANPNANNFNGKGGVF

[2] = molecular target: T2, CESA6, N-terminal YN or YC fusion (BiFC) (Arabidopsis thaliana) (UniProt Q94JQ6)
T2 sequence: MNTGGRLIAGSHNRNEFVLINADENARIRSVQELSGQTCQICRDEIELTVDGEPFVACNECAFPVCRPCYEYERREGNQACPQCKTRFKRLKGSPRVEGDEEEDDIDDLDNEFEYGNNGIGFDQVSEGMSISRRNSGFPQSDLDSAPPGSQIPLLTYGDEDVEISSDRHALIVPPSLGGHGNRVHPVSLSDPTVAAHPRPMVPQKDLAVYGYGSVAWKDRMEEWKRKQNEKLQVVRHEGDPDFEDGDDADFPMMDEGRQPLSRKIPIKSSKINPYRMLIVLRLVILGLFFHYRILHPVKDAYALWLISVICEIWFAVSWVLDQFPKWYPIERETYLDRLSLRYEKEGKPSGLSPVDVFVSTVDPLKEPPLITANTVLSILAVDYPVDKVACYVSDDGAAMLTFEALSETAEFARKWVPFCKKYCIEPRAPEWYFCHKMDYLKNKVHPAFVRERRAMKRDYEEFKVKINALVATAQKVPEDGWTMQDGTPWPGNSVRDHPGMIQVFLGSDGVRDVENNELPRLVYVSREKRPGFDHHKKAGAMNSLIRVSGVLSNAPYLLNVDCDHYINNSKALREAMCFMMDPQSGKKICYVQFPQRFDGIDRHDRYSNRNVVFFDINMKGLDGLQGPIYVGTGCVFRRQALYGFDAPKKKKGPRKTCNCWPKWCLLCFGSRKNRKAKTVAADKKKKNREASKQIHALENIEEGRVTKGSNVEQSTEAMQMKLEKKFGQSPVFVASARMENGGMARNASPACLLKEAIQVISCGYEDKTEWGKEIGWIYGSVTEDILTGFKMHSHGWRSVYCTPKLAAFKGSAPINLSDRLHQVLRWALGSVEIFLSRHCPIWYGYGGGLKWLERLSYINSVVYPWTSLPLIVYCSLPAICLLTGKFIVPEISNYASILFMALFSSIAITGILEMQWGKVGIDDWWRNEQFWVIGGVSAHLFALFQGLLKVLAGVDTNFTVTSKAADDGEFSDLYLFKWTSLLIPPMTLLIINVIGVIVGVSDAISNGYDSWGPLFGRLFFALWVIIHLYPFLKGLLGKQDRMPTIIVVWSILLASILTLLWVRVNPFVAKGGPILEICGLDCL

[3] = molecular target: T3, TIP1, N-terminal YN or YC fusion (BiFC) (Arabidopsis thaliana) (UniProt Q52T38)
T3 sequence: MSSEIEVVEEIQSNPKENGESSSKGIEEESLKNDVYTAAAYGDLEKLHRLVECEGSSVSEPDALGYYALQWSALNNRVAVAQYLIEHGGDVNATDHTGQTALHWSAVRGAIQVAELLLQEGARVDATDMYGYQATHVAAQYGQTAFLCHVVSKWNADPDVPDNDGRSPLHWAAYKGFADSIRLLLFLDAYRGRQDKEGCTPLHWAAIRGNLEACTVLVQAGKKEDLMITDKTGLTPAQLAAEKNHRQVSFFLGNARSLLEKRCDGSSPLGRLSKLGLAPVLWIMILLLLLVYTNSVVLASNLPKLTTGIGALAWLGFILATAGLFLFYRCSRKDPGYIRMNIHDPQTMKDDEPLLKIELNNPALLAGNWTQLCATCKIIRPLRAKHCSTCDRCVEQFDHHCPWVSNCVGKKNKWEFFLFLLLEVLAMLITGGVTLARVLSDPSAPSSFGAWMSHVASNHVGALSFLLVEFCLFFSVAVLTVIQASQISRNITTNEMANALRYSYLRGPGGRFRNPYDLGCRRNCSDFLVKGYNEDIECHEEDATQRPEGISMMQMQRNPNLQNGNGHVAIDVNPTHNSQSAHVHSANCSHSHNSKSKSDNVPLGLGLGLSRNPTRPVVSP

Measured: binding

B1: MUR3, N-terminal YN or YC fusion (BiFC) (protein, UniProt Q7XJ98 1-619)
chain: MFPRVSMRRRSAEVSPTEPMEKGNGKNQTNRICLLVALSLFFWALLLYFHFVVLGTSNIDKQLQLQPSYAQSQPSSVSLRVDKFPIEPHAAPSKPPPKEPLVTIDKPILPPAPVANSSSTFKPPRIVESGKKQEFSFIRALKTVDNKSDPCGGKYIYVHNLPSKFNEDMLRDCKKLSLWTNMCKFTTNAGLGPPLENVEGVFSDEGWYATNQFAVDVIFSNRMKQYKCLTNDSSLAAAIFVPFYAGFDIARYLWGYNISRRDAASLELVDWLMKRPEWDIMRGKDHFLVAGRITWDFRRLSEEETDWGNKLLFLPAAKNMSMLVVESSPWNANDFGIPYPTYFHPAKDSEVFEWQDRMRNLERKWLFSFAGAPRPDNPKSIRGQIIDQCRNSNVGKLLECDFGESKCHAPSSIMQMFQSSLFCLQPQGDSYTRRSAFDSMLAGCIPVFFHPGSAYTQYTWHLPKNYTTYSVFIPEDDVRKRNISIEERLLQIPAKQVKIMRENVINLIPRLIYADPRSELETQKDAFDVSVQAVIDKVTRLRKNMIEGRTEYDYFVEENSWKYALLEEGQREAGGHVWDPFFSKPKPGEDGSSDGNGGTTISADAAKNSWKSEQRDKTQ
no binding: all assays above

Reference: publication PMC10868759
